# Experimental data taken from article PMC9911399, “Two distinct binding modes provide the RNA-binding protein RbFox with extraordinary sequence specificity”.
# Changes are numbered by the printed parent chain; changes in the protein carry UniProt numbers. Some of the results follow.
# T1: RBFOX1 RRM RbFoxmut (Fox-RRM*) (Homo sapiens, UniProt Q9NWB1 109-208, R118D;E147R;N151S;E152T)
# T1 sequence: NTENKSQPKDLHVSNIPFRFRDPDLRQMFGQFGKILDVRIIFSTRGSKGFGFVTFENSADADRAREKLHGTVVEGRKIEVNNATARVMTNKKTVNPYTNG
# B1: GGUCUAG (DNA:RNA)
# RNA: GGGAGACCGGAAUUCAGAUUGUCCGGUCUAGUUAAAUCCCGUCGUAGCCACCA
# DNA 1: CAATCTGAATTCCGGTCTCCC
# DNA 2: TGGTGGCTACGACGGGATT
# B2: AACCCUC (DNA:RNA)
# RNA: B1 RNA with G25A, G26A, U27C, U29C, A30U, G31C
# DNA 1: CAATCTGAATTCCGGTCTCCC
# DNA 2: TGGTGGCTACGACGGGATT
# B3: AGUAUCC (DNA:RNA)
# RNA: B1 RNA with G25A, C28A, A30C, G31C
# DNA 1: CAATCTGAATTCCGGTCTCCC
# DNA 2: TGGTGGCTACGACGGGATT
# B4: UUGGGGC (DNA:RNA)
# RNA: GGGAGACCGGAAUUCAGAUUGUCCUUGGGGCUUAAAUCCCGUCGUAGCCACCA
# DNA 1: CAATCTGAATTCCGGTCTCCC
# DNA 2: TGGTGGCTACGACGGGATT
# B5: UAAGCGC (DNA:RNA)
# RNA: B4 RNA with U26A, G27A, G29C
# DNA 1: CAATCTGAATTCCGGTCTCCC
# DNA 2: TGGTGGCTACGACGGGATT
# B6: UUACAGA (DNA:RNA)
# RNA: B4 RNA with G27A, G28C, G29A, C31A
# DNA 1: CAATCTGAATTCCGGTCTCCC
# DNA 2: TGGTGGCTACGACGGGATT
# B7: UCAGCAU (DNA:RNA)
# RNA: B4 RNA with U26C, G27A, G29C, G30A, C31U
# DNA 1: CAATCTGAATTCCGGTCTCCC
# DNA 2: TGGTGGCTACGACGGGATT
# B8: CAACAAA (DNA:RNA)
# RNA: B1 RNA with G25C, G26A, U27A, U29A, G31A
# DNA 1: CAATCTGAATTCCGGTCTCCC
# DNA 2: TGGTGGCTACGACGGGATT
# B9: AGUAUAA (DNA:RNA)
# RNA: B1 RNA with G25A, C28A, G31A
# DNA 1: CAATCTGAATTCCGGTCTCCC
# DNA 2: TGGTGGCTACGACGGGATT
# B10: AACACCU (DNA:RNA)
# RNA: GGGAGACCGGAAUUCAGAUUGUCCAACACCUUUAAAUCCCGUCGUAGCCACCA
# DNA 1: CAATCTGAATTCCGGTCTCCC
# DNA 2: TGGTGGCTACGACGGGATT
# B11: UUGAUGA (DNA:RNA)
# RNA: B4 RNA with G28A, G29U, C31A
# DNA 1: CAATCTGAATTCCGGTCTCCC
# DNA 2: TGGTGGCTACGACGGGATT
# B12: CGUCCAU (DNA:RNA)
# RNA: B1 RNA with G25C, U29C, G31U
# DNA 1: CAATCTGAATTCCGGTCTCCC
# DNA 2: TGGTGGCTACGACGGGATT
# B13: AUACUUA (DNA:RNA)
# RNA: B1 RNA with G25A, G26U, U27A, A30U, G31A
# DNA 1: CAATCTGAATTCCGGTCTCCC
# DNA 2: TGGTGGCTACGACGGGATT
# B14: CACGAGG (DNA:RNA)
# RNA: B10 RNA with A25C, A28G, C29A, C30G, U31G
# DNA 1: CAATCTGAATTCCGGTCTCCC
# DNA 2: TGGTGGCTACGACGGGATT
# B15: UUGUCUU (DNA:RNA)
# RNA: B4 RNA with G28U, G29C, G30U, C31U
# DNA 1: CAATCTGAATTCCGGTCTCCC
# DNA 2: TGGTGGCTACGACGGGATT
# B16: CAUCGCC (DNA:RNA)
# RNA: B10 RNA with A25C, C27U, A28C, C29G, U31C
# DNA 1: CAATCTGAATTCCGGTCTCCC
# DNA 2: TGGTGGCTACGACGGGATT
# B17: UUGUAGC (DNA:RNA)
# RNA: B4 RNA with G28U, G29A
# DNA 1: CAATCTGAATTCCGGTCTCCC
# DNA 2: TGGTGGCTACGACGGGATT
# B18: UUAUCUA (DNA:RNA)
# RNA: B4 RNA with G27A, G28U, G29C, G30U, C31A
# DNA 1: CAATCTGAATTCCGGTCTCCC
# DNA 2: TGGTGGCTACGACGGGATT
# B19: AAUGAUU (DNA:RNA)
# RNA: B10 RNA with C27U, A28G, C29A, C30U
# DNA 1: CAATCTGAATTCCGGTCTCCC
# DNA 2: TGGTGGCTACGACGGGATT
# B20: AUGAGAG (DNA:RNA)
# RNA: B4 RNA with U25A, G28A, G30A, C31G
# DNA 1: CAATCTGAATTCCGGTCTCCC
# DNA 2: TGGTGGCTACGACGGGATT
# Biological target: T1, RBFOX1 RRM RbFoxmut (Fox-RRM*)
# Experiment: EMSA; HiTS-Eq, 1 nM pool, 10 min; buffer printed only for the single-RNA assays: 10 mM Tris pH 7.5, 150 mM NaCl, 3.4 mM EDTA, 0.001% NP-40, 30 C
# Conditions: tags: His6 N-terminal (pET28a); label: 5' 32P
# In short: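 These values rest on relative association constants, computed from read-count changes of each RNA species versus the control reaction and normalised to the cognate motif. Reads came from free RNA recovered by 8% native PAGE after purified RbFox RRM (wild type or mutant) at increasing concentrations was equilibrated for 10 min in 50 µL with 1 nM of a 5′-radiolabelled pool with 7 randomized nucleotides and DNA-annealed flanks.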
row,Binder,binding signal
1,B1,0.13 KA relative to UGCAUGU
2,B2,0.0343 KA relative to UGCAUGU
3,B3,0.143 KA relative to UGCAUGU
4,B4,0.0621 KA relative to UGCAUGU
5,B5,0.0719 KA relative to UGCAUGU
6,B6,0.0808 KA relative to UGCAUGU
7,B7,0.0995 KA relative to UGCAUGU
8,B8,0.07 KA relative to UGCAUGU
9,B9,0.096 KA relative to UGCAUGU
10,B10,0.0869 KA relative to UGCAUGU
11,B11,0.069 KA relative to UGCAUGU
12,B12,0.0848 KA relative to UGCAUGU
13,B13,0.133 KA relative to UGCAUGU
14,B14,0.0774 KA relative to UGCAUGU
15,B15,0.0875 KA relative to UGCAUGU
16,B16,0.125 KA relative to UGCAUGU
17,B17,0.139 KA relative to UGCAUGU
18,B18,0.0805 KA relative to UGCAUGU
19,B19,0.0798 KA relative to UGCAUGU
20,B20,0.16 KA relative to UGCAUGU
